Among all 220,000 compounds or so, about 16,000 (7.3%) were called active. This list was built around the results that the source calls inconclusive (neither active nor inactive); the mix of calls is not that of the screen. Calls come from the whole dose curve; as a rule, active = well fitted inhibition curve with a large enough effect (not every such curve was filed as active); inconclusive = small, poorly fitted or top-dose-only effect, or another doubt; inactive = no such curve, though single readings can be large or run the other way. No potency is given beside an inconclusive call; the fits are too rough.
Biological target: Aldehyde dehydrogenase 1A1 (Homo sapiens) (UniProt P00352)
Chain of UniProt P00352 (P00352 whole entry, looked up): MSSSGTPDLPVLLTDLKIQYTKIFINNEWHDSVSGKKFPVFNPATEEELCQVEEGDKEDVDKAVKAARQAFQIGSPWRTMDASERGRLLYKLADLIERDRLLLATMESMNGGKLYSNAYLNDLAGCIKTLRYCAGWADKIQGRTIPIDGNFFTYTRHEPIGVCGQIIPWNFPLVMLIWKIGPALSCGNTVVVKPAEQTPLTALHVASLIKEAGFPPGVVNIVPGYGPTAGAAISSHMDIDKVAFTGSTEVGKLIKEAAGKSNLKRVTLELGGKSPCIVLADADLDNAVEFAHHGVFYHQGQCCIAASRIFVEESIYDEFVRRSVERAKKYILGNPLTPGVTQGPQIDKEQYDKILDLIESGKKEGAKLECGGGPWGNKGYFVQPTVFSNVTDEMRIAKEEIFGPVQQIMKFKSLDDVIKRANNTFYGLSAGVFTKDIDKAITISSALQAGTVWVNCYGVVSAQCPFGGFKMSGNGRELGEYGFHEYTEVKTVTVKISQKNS
Test: qHTS Assay for Inhibitors of Aldehyde Dehydrogenase 1 (ALDH1A1);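 for activity, negative = inhibition: plate controls were no enzyme wells and a reference inhibitor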
Settings: Purified ALDH1A1, NADH fluorescence, propionaldehyde substrate; series mostly up to 75.3 µM; activity, negative = inhibition: at the top concentration
Potency is the fitted concentration of half-maximal effect; tags give direction and shape of the fitted curve.

SMILES | activity, negative = inhibition | Potency
CCCCN(NC(C)=O)c1nc(Cl)nc(NC(C)C)n1 | inactive: -7.18% | 
COC(=O)c1ccc(OC(=O)c2ccc(OC)cc2)c(OC)c1 | inactive: -2.11% | 
COc1cc(CNCCCN2CCOCC2)cc(Br)c1OCC(=O)N1CCCCC1 |  | inconclusive [inhibitor, partial curve, poor fit]
Oc1[nH]c2ccccc2c1N=NC(=S)NCC1CCCO1 (configuration not stated) | inactive: 11.2% | 
COc1ccc(-c2[nH]ncc2/C=N\NS(=O)(=O)c2ccccc2)cc1OC | inactive: -12% | 
O=S1(=O)Nc2c(ccc3cccnc23)-c2ccccc21 |  | inconclusive [inhibitor, single point]
CCOC(=O)c1c(NC(=O)c2ccc(Br)o2)sc2c1CCCC2 |  | inconclusive [inhibitor, single point]
COc1ccc(C(=O)/C=C/c2ccc(OC)c(CN3CCOCC3)c2)cc1 |  | inconclusive [inhibitor, single point]
COc1ccc(CNC[C@@H](CCCCN(C)Cc2ccc(OC)cc2)N2C[C@H](c3ccccc3)N(CCc3ccc(Cl)c(Cl)c3)C(=O)C2=O)cc1 |  | inconclusive [inhibitor, partial curve, poor fit]
CCCn1nc(NS(=O)(=O)c2ccccc2)c2cc3cc(C)ccc3nc21 |  | inconclusive [inhibitor, single point]
O=C(O)Cn1ccnc1 |  | inconclusive [inhibitor, single point]
Cc1ccc(S(=O)(=O)N(C#N)c2nc(C)cc(C)n2)cc1 | inactive: -9.3% | 
O=[N+]([O-])c1cccc(COc2ncnc3cc([N+](=O)[O-])ccc23)c1 |  | inconclusive [inhibitor, single point]
CN(C)C(=O)c1ccc(Oc2ccc(C(=O)N(C)C)cc2)cc1 |  | inconclusive [inhibitor, single point]
CN(C)C(=O)CSc1nc(-c2ccccc2)c(-c2ccccc2)o1 |  | inconclusive [inhibitor, single point]
COc1cc2c(cc1NC(=O)CN(C)Cc1nc3ccccc3c(=O)[nH]1)oc1ccccc12 |  | inconclusive [inhibitor, single point]
COc1cc(C)c(CC/C(C)=C/C=C/C(C)=O)c(C)c1C |  | inconclusive [inhibitor, single point]
COc1ccc(N2CCn3c2nc2c3c(=O)n(CCc3ccccc3)c(=O)n2C)c(OC)c1 |  | inconclusive [inhibitor, full curve]
CC(C)NC(=S)NNC(=O)C12CC3CC(CC(C3)C1)C2 |  | inconclusive [inhibitor, single point]
Cc1cccn2c(CNCC3OCCc4ccccc43)c(C(=O)N3CCCCC3)nc12 (configuration not stated) |  | inconclusive [inhibitor, single point]
CCN(CC)c1ccc2cc(-c3nc4ccccc4[nH]3)c(=O)oc2c1 | inactive: 8.17% | 
NC1=NC(=O)C(Cc2ccccc2)S1 (configuration not stated) | inactive: -0.544% | 
CC1(C)CN(c2cccc(-c3ccnc4ncnn34)c2)C1=O |  | inconclusive [inhibitor, single point]
Cc1ccc(/C=C/C(=O)O)cc1S(=O)(=O)Nc1ccc2c(c1)OCO2 |  | inconclusive [inhibitor, partial curve]

SMILES | activity, negative = inhibition | Potency
CC(=O)N[C@@H](Cc1ccc(OC(F)(F)F)cc1)C(=O)O | inactive: 4.77% | 
CCN(CC)C(=O)c1sc(NC(=O)c2cc(-c3ccc(C)s3)nc3ccccc23)c(C(=O)OC)c1C |  | inconclusive [inhibitor, partial curve]
Cc1ccc(C2CC(c3ccccc3)=NN2C(=S)Nc2ccccc2)o1 (configuration not stated) |  | active: 2 µM
Cc1nn(C)cc1/C=N/NC(=S)Nc1ccc(Cl)cc1Cl |  | inconclusive [inhibitor, single point]
CCC(=O)OCC(=O)[C@@]1(OC(=O)CC)[C@H](C)C[C@@H]2[C@H]3CCC4=CC(=O)C=C[C@]4(C)[C@]3(Cl)[C@@H](O)C[C@@]21C | inactive: -13.8% [at 20.9 µM] | 
Cn1c(=O)n(C)c2cc(C(N)=O)ccc21 |  | inconclusive [inhibitor, single point]
CN(C(=O)CSc1nnc(-c2n[nH]c3ccccc23)o1)c1ccccc1 |  | inconclusive [inhibitor, single point]
O=C(NCCc1ccccc1)c1cccc(N2C(=O)C3CC=CCC3C2=O)c1 (configuration not stated) | inactive: -2.19% | 
C=C(C)CNC(=S)Nc1ccc(S(=O)(=O)Nc2cnc3ccccc3n2)cc1 | inactive: 0.013% | 
CC(C)(C)NCc1cc2ccccc2[nH]c1=O |  | active: 20 µM
COC(=O)c1ccccc1NC(=O)CSCC(=O)Nc1ccc(F)cc1 | inactive: -6.59% | 
Cc1ccccc1CN1CCc2c(OCC(=O)N3CCCc4ccccc43)cccc2C1=O |  | inconclusive [inhibitor, partial curve]
O=C(NCc1ccccc1)c1nc2ccccc2s1 | inactive: 4.74% | 
Cc1cccc(NC(=S)NNC(=S)NC2CCCCC2)c1C |  | active: 2 µM
CC(CNC(=O)c1cccs1)c1ccc([N+](=O)[O-])cc1 (configuration not stated) |  | inconclusive [inhibitor, single point]
c1ccc2c(c1)NCCS2 |  | inconclusive [inhibitor, single point]
O=C1CC(/C=C/c2ccco2)=Nc2ccccc2N1 |  | inconclusive [inhibitor, single point]
COc1ccc(C)cc1-n1[nH]nnc1=S |  | active: 10 µM
CC(=O)C1=C(C)NC(C)=C(C(C)=O)C1c1ccc(-c2ccccc2Cl)o1 |  | inconclusive [inhibitor, single point]
COc1cc([N+](=O)[O-])ccc1NC(=O)CN1CCCC1 |  | inconclusive [inhibitor, single point]
Cc1ccc(Oc2ccc(OCC(=O)NC(CC(C)C)C(=O)O)cc2)cc1 (configuration not stated) |  | active: 6.31 µM
CCOc1c2ccc(C(=O)NCCc3cccs3)cc2nn1CC |  | inconclusive [inhibitor, partial curve]
CCOC(=O)c1c(O)c(O)c(C(=O)OCC)n1-c1ccccc1 |  | inconclusive [inhibitor, single point]
O=S(=O)(NC1CCCCCCC1)c1cccs1 |  | inconclusive [inhibitor, partial curve]

SMILES | activity, negative = inhibition | Potency
COc1ccccc1NC(=O)c1ccc(C)s1 | inactive: -4.02% | 
O=C(NCc1cccs1)c1cccc(Nc2nc3ccc(Br)cc3[nH]2)c1 | inactive: -8.82% | 
CCOC(=O)c1nn(-c2ccc(C)cc2)cc1C(=O)c1ccccc1 |  | inconclusive [inhibitor, single point]
CC(=O)c1ccc(NC(=O)Nc2ccc([N+](=O)[O-])cc2)cc1 | inactive: 12.1% | 
COC(=O)c1ccc(N2CCN(CC(=O)c3ccc(-c4ccccc4)cc3)CC2)c([N+](=O)[O-])c1 |  | inconclusive [inhibitor, partial curve]
CSC1=NCCN1C(=O)c1ccc(S(=O)(=O)N2CCCCC2)cc1 |  | inconclusive [inhibitor, single point]
CC(C)c1cccc2nc3c(c(C(C)(C)C)c12)Cn1c-3cccc1=O |  | inconclusive [inhibitor, partial curve]
Cc1occc1C(=O)N1CCN(Cc2ccccc2)CC1 |  | inconclusive [inhibitor, single point]
COc1ccc(C2Nc3ccccc3C(=O)N2Cc2ccco2)cc1COc1ccccc1F (configuration not stated) |  | inconclusive [inhibitor, single point]
CC(C)n1cc(/C=C2/NC(=O)N(c3cccc(Cl)c3)C2=O)c2ccccc21 |  | inconclusive [inhibitor, partial curve]
CC(=O)NCCNc1ncnc2ccc(-c3ccoc3)cc12 |  | inconclusive [inhibitor, partial curve]
COC(=O)c1sc(N)c(C(=O)OC)c1CSc1nc2sc3c(c2c(=O)n1C)CCC3 |  | inconclusive [inhibitor, single point]
O=C(CCc1ccccc1)Nc1nnc(-c2ccc3c(c2)OCCO3)o1 |  | inconclusive [inhibitor, partial curve]
Cc1cc(-c2nnc(SCC(=O)Nc3ccccc3C(F)(F)F)o2)c(C)n1-c1ccccc1 |  | active: 11.2 µM
O=C(/C=C/c1ccccc1)NCCSc1ccc(Cl)cc1 | inactive: -5.71% | 
Fc1ccc(-c2cc(C(F)(F)F)nc(N3CCCCC3)n2)cc1 |  | inconclusive [inhibitor, partial curve]
NC1=NC(c2cn[nH]c2-c2ccc(F)cc2)n2c(nc3ccccc32)N1 (configuration not stated) | inactive: 14.6% | 
NNC(=O)CCc1c[nH]c2ccccc12 |  | inconclusive [inhibitor, single point]
C[C@H](N)CCCC(C)(C)O | inactive: 7.75% [at 20.9 µM] | 
CCOC(=O)N1CCC(N2CC34C=CC(O3)C(C(=O)Nc3ccc(C(C)C)cc3)C4C2=O)CC1 (configuration not stated) |  | inconclusive [inhibitor, single point]
CCn1c(SCC(=O)Nc2oc(-c3ccccc3)c(-c3ccccc3)c2C#N)nnc1-c1ccncc1 |  | inconclusive [inhibitor, partial curve]
O=C(O)c1cc(-c2ccc(/C=C3/SC(=S)N(Cc4ccccc4)C3=O)o2)ccc1Cl |  | active: 0.0891 µM
CCc1cc(=O)oc2cc(OCC(N)=O)c(Cl)cc12 |  | inconclusive [inhibitor, single point]
COc1ccc(C(=S)N2CCN(c3cccc(Cl)c3)CC2)cc1 |  | inconclusive [inhibitor, single point]

Source: PubChem BioAssay AID1030 (National Center for Advancing Translational Sciences (NCATS), 2008)
